Experimental data from PubChem BioAssay AID493208 (National Center for Advancing Translational Sciences (NCATS), 2011).
Hit rate of the full screen: of about 44,000 compounds, about 340 (0.77%) were called active. Not shown: some 5% with an inconclusive outcome. Calls come from the whole dose curve; as a rule, active = well fitted inhibition curve with a large enough effect; inconclusive = small, poorly fitted or top-dose-only effect; inactive = flat fitted curve, though single readings scatter. Some of the results follow.

Assay: Acumen qHTS Assay for Inhibitors of the mTORC1 Signaling Pathway in MEF (Tsc2-/-, p53-/-) Cells: Sytravon; note: nearly all actives have a fitted effect of over 50% in size;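 for activity change, negative = inhibition: plate controls were DMSO for no effect and rapamycin for full effect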
Details: phospho-rpS6 immunofluorescence/PI, 24 h; series mostly up to 38.3 µM; activity change, negative = inhibition: at the top concentration
Procedure, shortened: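 Tsc2-/-, p53-/- MEFs (empty-vector stable line) in DMEM + 10% FBS were treated with compounds 24 h at 37 degree Celsius, fixed, and immunostained for phospho-rpS6 (Alexa-488) with propidium iodide counterstain. Laser-scanning cytometry gave % positive cells, normalized against 7.5 nM rapamycin and DMSO.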
Potency is the fitted concentration of half-maximal effect.

Activity change, negative = inhibition, inactive:
CCOc1nc(-c2ccccc2)ccc1-c1noc(-c2ccc(C)cc2)n1 -28.8%, COc1ccc(S(=O)(=O)c2c(C(=O)c3ccc(C)c(C)c3)cnc3ccc(C)cc23)cc1 -9.31%, Fc1ccc(-c2cc(-c3nc(-c4ccc(Cl)cc4)no3)[nH]n2)cc1 10.6%, Cc1c(C(=O)OC2CCC(C)CC2)[nH]c2c1C(=O)CC(c1ccc(N(C)C)cc1)C2 (stereo not given) 9.45%, CC(C)(C)OC(=O)N1CCC(c2c(C(=O)N3CCN(C(=O)c4ccco4)CC3)cnn2-c2cccc(Cl)c2)CC1 5.77%, CC(=O)c1ccc(NC(=O)c2nc(-c3ccc(Cl)cc3)n3c2CCCCC3)cc1 -10.8%, COc1cccc(OCC(=O)NC2CC(=O)N(c3cccc(OC)c3)C2)c1 (stereo not given) 0.382%, COC(=O)c1cc(NC(=O)CC2C(=O)OCCN2Cc2ccccc2)cc(C(=O)OC)c1 (stereo not given) 2.47%, Cc1cccc(OCC(=O)N2CCC(c3nc4ccccc4o3)CC2)c1C 0.391%, Cc1cc(C)c2c(=O)cc(C(=O)Nc3sc4c(c3C(=O)NCc3ccco3)CCCC4)oc2c1 -1.21%, CS(=O)(=O)CC[C@@H](C(=O)NCCc1ccccc1)N1Cc2ccccc2C1=O -11.3%, CN(c1nnc(NC(=O)Nc2ccccc2C(F)(F)F)s1)C1CCCCC1 -0.763%, COc1ccc(NC(=O)Cn2c(=O)c3ccccc3n3nncc23)cc1Cl 2.05%, COCc1cc(C)nc2c1C(=O)NC(c1ccc(NC(C)=O)cc1)N2Cc1ccccc1 (stereo not given) 1.39%, Cc1ccc(NC(=O)CN2C(=O)c3cccnc3Sc3ccccc32)c(Br)c1 -10.9%, Cc1ccc(Nc2c3c(nc4nncn24)CCC3)c(C)c1 -4.73%, COc1ccc2c(c1)-c1nc(NC(=O)c3cccc(Br)c3)sc1CC2 -2.19%, Cc1ccc(NC(=O)Cn2nnc(-c3ccccc3)n2)c(C)c1 -0.0302%, O=C(C1COc2ccccc2O1)N(Cc1cccnc1)c1nc2c(F)cccc2s1 (stereo not given) -4.75%, CCOC(=O)c1c(NC(=O)c2cc(-c3cccc(Cl)c3)on2)sc(C(C)=O)c1C -0.159%, CC1CCN(S(=O)(=O)c2cc(C(=O)N3CCN(c4cccc(Cl)c4)CC3)n(C)c2)CC1 -13.6%, COc1ccc(N(CC(=O)N2CCc3ccccc3C2)S(=O)(=O)c2ccccc2)cc1 3.36%, CCOC(=O)c1nnn(C(CC)C(=O)Nc2ccc(F)cc2)c1C(=O)OCC (stereo not given) -26.7%, COc1ccccc1C1C(C(=O)N2CCCCC2)=C(C)Nc2nc3ccccc3n21 (stereo not given) -1%, CCOc1ccc(S(=O)(=O)c2cn(CC)c3ccc(F)cc3c2=O)cc1 0.751%, CSc1ccc(CCNC(=O)Cn2c(C)c3cnn(-c4ccccc4)c(=O)c3c2C)cc1 1.03%, COc1cccc(/C=C/c2nc(C#N)c(NC3CCCCC3)o2)c1 -9.62%, CCc1cccc(NC(=O)CSc2nnc(-c3cc4occc4n3C)n2-c2ccccc2C)c1 -0.13%, COc1cccc(-n2c(=O)c3sc4ccccc4c3n(Cc3c(F)cccc3Cl)c2=O)c1 1.68%, Cc1ccc(-n2nc(CO)c(C(=O)NCCC(C)C)n2)cc1C 4.81%, Cc1ccc(CNC(=O)c2ccc(Cn3c(SCc4ccc(F)cc4)nc4cccnc43)cc2)o1 -0.761%, O=c1n(Cc2ccc(F)cc2)c2ccccc2c2nc(-c3ccccc3)nn12 2.13%, CCOC(=O)c1c(C)oc2nc(C)nc(NCC3CCN(Cc4cc(C)ccc4C)CC3)c12 -5.9%, CCCN(C(=O)CCc1nc(-c2ccc(C)cc2)no1)c1ccc(OCC)cc1 0.0915%, Cc1ccc(N2C(=O)C(CC(=O)Nc3cccc(F)c3)N(CCc3ccccc3F)C2=O)cc1 (stereo not given) -20.3%, Cc1ccccc1OCC(=O)Nc1ccc(-c2nc3cc(Cl)cc(Cl)c3o2)cc1 -3.38%, COc1cccc(NC(=O)N(CCC(C)C)C2CCN(C(C)C)CC2)c1 0.428%, Cc1ccc(CNC(=O)C2CCN(S(=O)(=O)c3ccc4nc5c(c(C(=O)O)c4c3)CC(C)CC5)CC2)cc1 (stereo not given) -11.5%, CCc1cnc2c(c1SCC(=O)NCc1ccc(C)cc1)c(=O)n(C)c(=O)n2C 1.72%, Cn1ccc2c(OCC(=O)Nc3ccc(OC(F)(F)F)cc3)cccc2c1=O -9.76%, CC(=O)c1ccc(NS(=O)(=O)c2ccc(Br)s2)cc1 4.74%, CCn1cc(C(=O)N2CCN(c3cc(Cl)ccc3C)CC2)c(=O)c2cc(S(=O)(=O)N3CCCC3)ccc21 0.418%, COc1cc(Cl)c(C)cc1NC(=O)c1cc2c(=O)oc3ccccc3c2s1 -8.17%, CC(C)(C)C1CCc2c(sc(NC(=O)c3ccco3)c2C(=O)Nc2ccccc2Cl)C1 (stereo not given) 0.807%, COc1cc2nc(SCC(=O)Nc3ccccc3C)n3nc(CCn4c(C)nc5ccccc54)nc3c2cc1OC -2.49%, CCOCCCNC(=O)c1cn(CC)c2ccc(S(=O)(=O)N3CCOCC3)cc2c1=O -1.91%, CCOC(=O)CSc1nc2ccc(NC(=O)COc3ccc(F)cc3)cc2s1 -3.98%, Cc1cccc2sc(N(Cc3cccnc3)C(=O)CCOc3ccccc3)nc12 -14.4%, CCOC(=O)c1ccc(N2CCN(c3ccccc3OC)CC2)c(NC(=O)Nc2ccc(CC)cc2)c1 0%, Cc1cc(C(=O)N2CCN(c3cccc(Cl)c3)CC2)c2c(C)nn(-c3ccccc3Cl)c2n1 -5.53%, COc1ccc(CNC(=O)C2=CC(c3ccc(OC)c(OC)c3)=NS(=O)(=O)N2C)cc1 -7.88%, CCOc1ccc(NC(=O)N(Cc2cn(CC)c3ccccc23)C2CCCCCC2)cc1 -2.3%, COc1ccc(S(=O)(=O)c2c(Nc3ccc(C)cc3C)sc(C(=O)c3ccc(F)cc3)c2N)cc1 1.97%, Cc1cc(C)c(NC(=O)C2CCN(S(=O)(=O)c3c(C)noc3/C=C/c3ccccc3F)CC2)c(C)c1 -7.25%, CN(C)c1ccc(C(CNC(=O)c2ccccc2Cl)N2CCCC2)cc1 (stereo not given) 0%, Cc1nnsc1C(=O)Oc1ccc(Cl)cc1 -0.0768%, CN1C(=O)Cc2cc(S(=O)(=O)NCc3ccc(Cl)cc3)ccc21 -6.83%, O=C(NCc1ccccc1)C(=O)NCC(c1cccs1)S(=O)(=O)c1cccs1 (stereo not given) -1.13%, COc1ccc(N2CCN(CCCNC(=O)c3cnn(-c4ccc(C)cc4)c3-n3cccc3)CC2)cc1 0.47%, COc1cccc(N2CCN(C3=NS(=O)(=O)C(c4ccc(C)cc4)=C3C)CC2)c1 0.907%, Cc1ccc(Cn2c(=O)n(CCCCC(=O)NCc3ccc4c(c3)OCO4)c(=O)c3ccccc32)cc1 7.4%, CCC(Sc1nnc2c(n1)[nH]c1ccccc12)C(=O)Nc1ccccc1OC (stereo not given) -4.93%, CCc1ccccc1S(=O)(=O)Cc1ccc(C(=O)NCCc2ccc(C)cc2)o1 1.97%, Cc1cc(C)cc(C(=O)NCCc2csc(-c3ccc(C(F)(F)F)cc3)n2)c1 1.55%, CCc1ccccc1NC(=O)CSc1ncc2c(n1)-c1cc(Cl)ccc1N(Cc1ccccc1)S2(=O)=O 4.48%, Cc1c(C(=O)OCC2CCCCC2)[nH]c2c1C(=O)CC(c1ccccc1Cl)C2 (stereo not given) -1.28%, COc1ccc(CCNC(=O)CCc2c(C)nc3c4cccnc4nn3c2C)cc1OC -3.42%, CCCCn1cc(S(=O)(=O)c2ccc(OC)cc2)c(=O)c2cc(F)c(N3CCOCC3)cc21 -1.5%, COc1ccc(NC(=O)c2ncn(-c3ccccc3)n2)cc1Cl -3.21%, CCc1ccc(-n2nc(C)c3c(C)cc(=O)n(CC(=O)Nc4cc(C)ccc4C)c32)cc1 -12%, Cc1ccc(N2C(=O)c3n[nH]c(C)c3C2c2ccccc2Cl)cc1 (stereo not given) -17.9%, CC(=O)Nc1c(C)nn(-c2ccccc2)c1N1CCC(C(=O)Nc2cc(F)ccc2F)CC1 13.7%, COc1ccccc1NC(=O)N1CCN(Cc2nc3ccc(C)cc3o2)CC1 0%, Cc1cc2c(cc1NS(=O)(=O)c1ccc(NC(=O)CC(C)C)cc1)n(C)c(=O)c(=O)n2C -8.13%, Cc1cc(C)c(NC(=O)Cn2c(=O)n(CC3CCCO3)c(=O)c3ccccc32)c(C)c1 (stereo not given) 9.06%, Cn1cc(S(=O)(=O)N2CCCC2)cc1C(=O)N1CCN(c2cccc(Cl)c2)CC1 8.55%, COc1ccc(C2=NS(=O)(=O)N(C)C(C(=O)N(C)Cc3ccccc3)=C2)cc1OC 0.573%, Cc1ccccc1OCc1nc2ccccc2n1Cc1ccccc1Cl -20.7%, CC(=O)c1ccc(NC(=O)CSc2cn(CC(=O)N(C(C)C)C(C)C)c3ccccc23)cc1 -11%, CCS(=O)(=O)N1CCc2cc(C(=O)Nc3cccc(C(C)=O)c3)ccc21 -6.87%, CCCCN(CC)C(=O)CCNS(=O)(=O)c1ccc2c(c1)c(=O)n(C)c(=O)n2C -18.2%, CC(C)CCn1c(Oc2ccccc2F)nc2c1c(=O)n(C)c(=O)n2C 2.13%, CCCNC(=O)Cn1c(=O)c2cccn2c2cccnc21 2.32%, CCCNC(=O)C1Cc2cc(S(=O)(=O)N3CCCCCC3)ccc2N1C(C)=O (stereo not given) 14.1%, CCCn1cnc2cc(NCc3ccccc3OCC)ccc21 0.328%, CCn1c(C(=O)NCc2ccccc2Br)cc2oc3ccccc3c21 -4.01%, COC(=O)c1ccc(C(=O)OC)c(NC(=O)c2cc3nc(-c4ccc(C)cc4)cc(C(F)(F)F)n3n2)c1 2.48%, CCc1cc(=O)oc2c(C)c3c(cc12)CN(CCc1ccccc1OC)CO3 -2.28%, COCCCNC(=O)c1sc2nc(C)c(C(=O)Nc3ccc(C)cc3C)c(-c3ccccc3Cl)c2c1N -8.74%, CCCNC(=O)CCCN1C(=O)CCn2nc(-c3cccn3C)cc21 -4%, CCc1ccc2oc(-c3ccc(NC(=O)c4cc5ccccc5o4)cc3)nc2c1 -7.31%, COc1ccc(C(=O)NCc2ccc3c(c2)CCN3C(=O)c2ccccc2)cc1 -0.155%, COc1ccc(NS(=O)(=O)c2ccc(-c3cnc(C4CC4)o3)cc2)cc1Cl -17.1%, O=C(CCSCc1cnn(-c2ccccc2)c1-n1cccc1)NCc1ccccc1Cl -13.6%

Potency, active:
CCCOc1cccc(C2c3c(-c4ccccc4O)n[nH]c3C(=O)N2Cc2ccco2)c1 (stereo not given) 14.7 µM
